PMC11188305, “Reproductive and fetal toxicity studies of histamine H3 receptor antagonist DL76 used in mice to prevent maximal electroshock-induced seizure” (Frontiers in Pharmacology, 2024)

Tested on: Na+ channel (site 2)
Conditions: at 1 μM; rat cerebral cortex; [3H]batrachotoxin

CC(C)(C)c1ccc(OCCCN2CCCCC2)cc1 [DL76, 1-(3-(4-tert-butyl-phenoxy)propyl) piperidine]
Na+ channel (site 2) inhibition: 32%
